Laboratory results: the supplement of paper PMC3334620
The full ranking holds about 33,000 sequences; the median of “E-score (-0.5 to 0.5)” is about -0.043, and the highest 2% start at about 0.37. This is one part of the list.

target: T1, Upc2 (UniProt Q12151); experiment: PBM E-score (8-mer binding enrichment) (E-score (-0.5 to 0.5)); higher = stronger / more preferred TF binding; most listed sequences are background and not binding sites; settings: protein concentration: 200 nM; construct: GST-full length
T1 sequence: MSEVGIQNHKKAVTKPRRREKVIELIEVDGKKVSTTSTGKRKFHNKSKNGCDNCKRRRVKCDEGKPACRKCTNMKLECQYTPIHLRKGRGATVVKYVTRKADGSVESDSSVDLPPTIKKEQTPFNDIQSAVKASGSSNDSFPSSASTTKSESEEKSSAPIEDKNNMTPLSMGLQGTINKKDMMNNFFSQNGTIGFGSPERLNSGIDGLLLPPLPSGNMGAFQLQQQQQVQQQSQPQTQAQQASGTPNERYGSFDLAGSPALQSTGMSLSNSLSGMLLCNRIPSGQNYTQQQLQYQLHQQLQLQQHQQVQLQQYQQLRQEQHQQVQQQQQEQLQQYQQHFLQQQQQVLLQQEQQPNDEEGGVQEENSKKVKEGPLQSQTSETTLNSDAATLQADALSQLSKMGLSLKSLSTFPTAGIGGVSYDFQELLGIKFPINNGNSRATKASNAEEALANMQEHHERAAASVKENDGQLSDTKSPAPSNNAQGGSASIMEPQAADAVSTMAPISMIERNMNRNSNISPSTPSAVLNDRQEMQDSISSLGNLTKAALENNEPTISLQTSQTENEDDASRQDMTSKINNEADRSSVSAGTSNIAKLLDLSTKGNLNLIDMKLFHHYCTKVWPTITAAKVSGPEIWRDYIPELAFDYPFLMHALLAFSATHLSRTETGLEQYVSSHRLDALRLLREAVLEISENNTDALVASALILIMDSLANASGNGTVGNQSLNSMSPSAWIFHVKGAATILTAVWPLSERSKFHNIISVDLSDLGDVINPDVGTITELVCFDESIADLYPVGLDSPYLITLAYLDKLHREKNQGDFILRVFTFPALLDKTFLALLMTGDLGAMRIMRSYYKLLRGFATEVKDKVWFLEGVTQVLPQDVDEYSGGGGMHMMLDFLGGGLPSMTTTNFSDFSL
Method in brief: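 Universal all-10-mer Agilent arrays, fresh or stripped once, were converted to double-stranded form by primer extension. GST-tagged yeast transcription factors from PURExpress in vitro transcription/translation, full-length or DNA-binding domain only, were applied at about 100-200 nM and detected with fluorescent anti-GST. After masliner normalisation, the Universal PBM Analysis Suite scored each ungapped eight-base word together with its reverse complement by E-score.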

Row | Sequence | PBM E-score
1 | ATAGTCGG | -0.0606
2 | GGCGCGGA | -0.177
3 | ACGTCCCC | 0.0823
4 | AGTGTGAC | -0.142
5 | ATCCTAGA | -0.133
6 | AGGGTACG | 0.364
7 | ACAGTAGA | -0.0149
8 | CAGTACAG | 0.0309
9 | AATTAGTC | 0.00586
10 | AATCCCCT | -0.164
11 | GCCCAACA | -0.0641
12 | CAGGCTTC | -0.121
13 | CAGTGCGA | -0.0196
14 | CCGAAGCC | -0.139
15 | AGCTGATG | -0.114
16 | CCGGACTC | -0.134
17 | AAGGGCAT | -0.29
18 | AGTCCGAT | 0.0136
19 | AATCACAA | -0.0387
20 | GTCTCAAC | -0.0784
21 | ACTGGTCA | -0.0573
22 | GATTATAA | 0.132
23 | AGCGGTAC | 0.262
24 | AAAGGATA | 0.0822
25 | ATTGAGAG | -0.11

Row | Sequence | PBM E-score
26 | GCAGAGAA | -0.115
27 | GCCGGTCC | -0.259
28 | CGGCTCAC | -0.161
29 | CCGGGGAA | -0.23
30 | CGCGAGCC | 0.225
31 | AATGGAAA | -0.166
32 | CATCTTAG | -0.0125
33 | GTTTACCA | 0.266
34 | ATCGATAG | -0.0178
35 | ACTCCTGC | -0.0877
36 | AAGCAGAG | -0.114
37 | ATCTCGGG | -0.0286
38 | GCAGACCA | -0.171
39 | ACGCGACA | 0.129
40 | GCACTTTA | 0.0116
41 | ACGCGACT | 0.0452
42 | GCGTGGTA | -0.0682
43 | ACGAGGAA | 0.359
44 | ATCACCTC | 0.0142
45 | GTAGGGGA | -0.223
46 | ATGCCAAT | -0.253
47 | AGCGTCCC | -0.159
48 | GAATAAAC | 0.135
49 | CATTCGGG | -0.124
50 | AGCAAGTG | -0.273

Row | Sequence | PBM E-score
51 | ACTAGCTC | 0.103
52 | GCGCGTCA | -0.0954
53 | CCGTCTCA | -0.226
54 | AATTTATA | 0.234
55 | CATGAAGG | -0.00415
56 | ATTGGAGG | -0.157
57 | CCGTCGCA | 0.111
58 | CAATACGG | 0.196
59 | AAGGCCTT | 0.101
60 | ATGCGACC | 0.254
61 | CGACTACC | -0.0187
62 | GCATCCAA | -0.276
63 | CTTGTTAC | -0.0553
64 | ATGGTTAA | -0.0265
65 | ACCGGTCC | -0.299
66 | AGCAGACC | -0.0454
67 | AAGTCGTG | -0.0736
68 | GACTAACA | 0.121
69 | CCTCTGTA | 0.0279
70 | GAGGTAGC | 0.0116
71 | ACAAAACG | 0.133
72 | AATAGTGT | 0.0638
73 | CGGTCACA | 0.0569
74 | CCTATGCC | -0.13
75 | CACGGCCA | -0.314

Row | Sequence | PBM E-score
76 | TGCGGTAA | 0.125
77 | GGAGGGGA | -0.134
78 | GCCAACAA | -0.136
79 | CCAGCAAG | -0.121
80 | CAAGATCC | -0.0814
81 | GAGAACTA | 0.00901
82 | CACCCAAG | 0.127
83 | TCATAGCA | -0.203
84 | CCGACGAG | 0.1
85 | CGGGGCAG | 0.131
86 | CTTGAATC | -0.0151
87 | CTGGAGGA | -0.284
88 | AACCTAGG | -0.138
89 | GCCGGGAA | -0.0419
90 | AAACGACG | 0.476
91 | CAGCATCC | -0.146
92 | GATCCTGA | 0.0221
93 | CCGAGGGC | 0.094
94 | TACCCCCA | -0.076
95 | CGTGCTGA | -0.0663
96 | AGCCTTAC | 0.00944
97 | GGTTAAAA | 0.133
98 | CTACTACC | -0.0579
99 | TGCCTTAA | 0.14
100 | ACACGTAA | 0.165

Row | Sequence | PBM E-score
101 | CACACTGA | -0.162
102 | ATATAGGG | -0.121
103 | GTCGCCCA | -0.125
104 | GTGATGTA | 0.132
105 | GGGAGACC | -0.234
106 | AACCCGCC | 0.0828
107 | CTCACGCC | 0.0188
108 | GTACAGAA | 0.191
109 | AATCGATC | 0.0238
110 | GCAAGTAC | 0.0344
111 | GAAAGGGC | -0.26
112 | AAGACAAG | -0.0929
113 | CTTGTCAC | -0.158
114 | CGTGGGTA | -0.187
115 | CTGAGTCC | -0.2
116 | AGATGTGG | -0.097
117 | AGCATGAC | -0.215
118 | CCTAAACA | -0.063
119 | ATATCCAA | -0.0675
120 | CCGAGCGC | 0.196
121 | AATTGTTC | 0.125
122 | TAGTCTAA | -0.0448
123 | TTCTCCAA | -0.0332
124 | GCAAGGCC | -0.139
125 | CGCTAACG | 0.282

Row | Sequence | PBM E-score
126 | AACCTATC | -0.0765
127 | AAAGCTCT | -0.0987
128 | CTTGGCTC | -0.131
129 | AGCGGAGG | -0.133
130 | GGCGTTAC | -0.0441
131 | ACCTTAGG | -0.264
132 | ACGTAGGC | 0.0415
133 | AGATACCG | 0.0191
134 | CTTACATA | -0.0528
135 | CAATCGTC | -0.144
136 | ACGAAGGG | 0.287
137 | CCGTCACA | -0.132
138 | TACTTTCA | -0.123
139 | CCCTACTC | -0.0198
140 | AATCTACA | 0.0784
141 | AGTGACAC | -0.0216
142 | CCCCCTTA | -0.148
143 | AGCTTGAC | -0.102
144 | GAATCACA | -0.219
145 | CCGTATCG | 0.319
146 | CCGCGCAG | 0.0562
147 | GGGCCACA | -0.0724
148 | CCGTCGTC | 0.0861
149 | ATTCGCGC | 0.0674
150 | CAGACGAG | 0.23

Row | Sequence | PBM E-score
151 | CGCTTAAC | 0.355
152 | AGAAGCCC | -0.1
153 | CATAGGTC | -0.0923
154 | GGGCCCCA | -0.259
155 | CAAGTACG | 0.267
156 | AGTCCTCA | -0.296
157 | ATCCTGCA | -0.239
158 | CGCAGACG | 0.116
159 | GACCGATC | -0.0542
160 | ATTGAATG | -0.0017
161 | AAGGTCCA | -0.0241
162 | GTGTTGAA | 0.001
163 | CCAAATGC | -0.237
164 | AGTACTAT | 0.0865
165 | ATTACTCA | -0.153
166 | ACTATGCC | -0.178
167 | CCCTGCGG | -0.147
168 | AACACTCT | -0.108
169 | ACAATGTC | -0.0552
170 | AAAAGTGG | -0.0592
171 | ATCCGCCG | 0.00363
172 | AGTTGTTA | -0.105
